Biological target: the molecule itself
Test: SDS-PAGE-based thermostability assay; with D-biotin; samples acetylated in vitro, heated 20 min at temperatures between RT and 100°C in SDS-PAGE buffer with β-mercaptoethanol, 15% SDS-PAGE, Coomassie staining

| Protein | binding result |
| --- | --- |
| wild type avidin (natural protein, N-terminal glutamine partly cyclised to pyrrolidone carboxylic acid (PCA); intramolecular disulfide Cys4-Cys83; acetylated in vitro for the SDS-PAGE thermostability assay, avidin; theoretical mass with QTV and one disulfide 14668.43 Da; numbers count on: the mature protein (QTV numbered -3 to -1); Expressed from pET101/D-TOPO behind the B. avium OmpA signal peptide; also called wt avidin; Avd) QTVARKCSLTGKWTNDLGSNMTIGAVNSRGEFTGTYITAVTATSNEIKESPLHGTQNTINKRTQPTFGFTVNWKFSESTTVFTGQCFIDRNGKEVLKTMWLLRSSVNDIGDDWKATRVGINIFTRLRTQKE | binds |
| Avd(S16C) (natural protein, N-terminal glutamine partly cyclised to pyrrolidone carboxylic acid (PCA); intramolecular disulfide Cys4-Cys83; acetylated in vitro for the SDS-PAGE thermostability assay, avidin with S16C; theoretical mass with QTV and one disulfide 14684.41 Da; numbers count on: the mature protein (QTV numbered -3 to -1); Expressed from pET101/D-TOPO behind the B. avium OmpA signal peptide; also called avidin S16C) QTVARKCSLTGKWTNDLGCNMTIGAVNSRGEFTGTYITAVTATSNEIKESPLHGTQNTINKRTQPTFGFTVNWKFSESTTVFTGQCFIDRNGKEVLKTMWLLRSSVNDIGDDWKATRVGINIFTRLRTQKE | binds |
